The whole screen tested about 52,000 compounds, of which about 1,700 (3.3%) were called active. Cut-off read from the data, not from the text of the source: active = survival mostly below about 52% (no sharp cut-off); inactive = mostly above about 56%. Some of the results follow.

This experiment concerns Wild type. Kind of experiment: S. aureus survival, RN4220 and DeltatarO strains – OD600, teichoic acid synthesis inhibitors, primary screen (AID 463173). The following applies: S. aureus RN4220 wild type/DeltatarO growth, OD600, 18 h, active compounds read low, screened at 18.75 µg/mL (by protocol).
For `O=C(NC1(C(F)(F)F)C(=O)Nc2c1c(=O)[nH]c(=O)n2CCc1ccccc1)c1ccc(Cl)cc1Cl` (stereo not given), the survival was inactive: 69%.
In the case of `CCOc1ccccc1NC(=O)C1CCCN(S(=O)(=O)c2c(C)[nH]c(=O)[nH]c2=O)C1` (stereo not given), the survival was inactive: 79%.
With `CCOc1ccc(/C=C(\C#N)c2nc3ccccc3c(=O)[nH]2)cc1OC` the figure was inactive: 90%; with `Cc1ccc(N2CC(NC(=O)Cc3cccs3)CC2=O)cc1C` (stereo not given), inactive: 19%.
In the case of `CCOC(=O)N1CCc2c(sc(NCc3cccc(F)c3)c2C(=O)Nc2ccccc2OCC)C1` it was inactive: 72%; in that of `Cc1nc(N2C(=O)c3oc4ccccc4c(=O)c3C2c2cccc(OCCC(C)C)c2)sc1C` (stereo not given), inactive: 69%; in that of `CCOc1ccc(-c2nonc2NC(=O)c2oc3ccc(Br)cc3c2C)cc1`, inactive: 75%.
With `O=C(CSc1nnc(-c2ccccc2)c(-c2ccccc2)n1)NC1CCCCC1`, the survival was inactive: 94%.
In the case of `COc1ccc2c(c1)CCc1c(C(=O)Nc3ccc(F)c(Cl)c3)noc1-2` it was inactive: 83%.
In the case of `CCc1nc2ccc(C(=O)N3CCN(c4ccccc4)CC3)cc2nc1CC` it was inactive: 132%.
Turning to `COC(=O)c1nnn(CC(=O)NC(=O)Nc2cccc(C)c2C)c1C(=O)OC`, the survival is inactive: 78%.
`COc1ccc(S(=O)(=O)N(CCc2ccccc2)CC(=O)Nc2ccc(C)c(C)c2)cc1OC`: the survival is inactive: 71%.
In the case of `CCC(=O)Nc1nnc(SCc2cc(=O)c3cc(C)ccc3[nH]2)s1` it was inactive: 73%; in that of `CCOc1cc(-c2nnc(SCC(=O)Nc3ccc(F)c(F)c3)nc2-c2ccc(OC)c(OCC)c2)ccc1OC`, inactive: 72%.
With `O=C(c1ccccc1Cl)n1cc(Cl)cn1` the figure was inactive: 100%; with `O=C(Nc1cccc(-c2nc3ccccc3o2)c1)c1ccc(-c2ccc(Br)cc2)o1`, inactive: 57%; with `Cc1csc(-c2cc3ccccc3oc2=O)n1`, inactive: 111%.
As to `COc1ccc(CNc2oc(C)nc2C#N)cc1`, the survival is inactive: 99%.
With `COc1ccc(C(C(=O)NC2CCCC2)N(Cc2ccco2)C(=O)Cn2nc(C(F)(F)F)c3c2CCCC3)cc1` (stereo not given) the figure was inactive: 111%; with `O=S(=O)(Nc1ccc(-c2ccc(N3CCCC3)nn2)cc1)c1ccc(Cl)cc1`, inactive: 73%; with `Cc1c(C(=O)OC2CCCC2)[nH]c2c1C(=O)CC(c1ccc(Cl)cc1)C2` (stereo not given), inactive: 87%.
In the case of `CCOc1ccc(CNS(=O)(=O)c2c(C(=O)N3CCC(C)CC3)c(C)n(C)c2C)cc1OC` it was inactive: 71%.
With `CC(=O)N1CCc2c(sc3c2c(=O)n(-c2ccccc2)c(=O)n3CC(=O)Nc2cccc(C)c2)C1` the figure was inactive: 91%; with `CC(C)N(C(=O)CSc1nc2ccc(Cl)cc2[nH]1)c1ccccc1`, inactive: 81%.
On to `COc1ccccc1CNC(=O)CCCc1nnc2n(CC(C)C)c(=O)c3sccc3n12`, for which the survival was inactive: 105%.
In the case of `COc1ccccc1CNC(=O)CCC1N=C2c3ccccc3N=C(SCc3cccc(Cl)c3)N2C1=O` (stereo not given) it was inactive: 82%.
With `Nc1cccc2c1C(=O)N(CC(=O)O)C2=O` the figure was inactive: 104%; with `Nc1nc2cc3c(cc2s1)OCCO3`, inactive: 113%; with `CC1CCCN(S(=O)(=O)c2ccc(N)cc2)C1` (stereo not given), inactive: 109%.
With `O=C(c1ccc(F)cc1)N1c2nc(-c3ccco3)nn2C2(CCCCC2)[C@@H]2CCCC[C@@H]21` the figure was inactive: 82%.
Turning to `Cc1cc(=O)[nH]c(SC(C)C(=O)Nc2ccccc2)n1` (stereo not given), the survival is inactive: 102%.
With `CCOc1ccc(OCC)c(NS(=O)(=O)c2cc(Br)cc3c2N(C(C)=O)C(C)C3)c1` (stereo not given) the figure was inactive: 73%; with `COc1ccc(-c2cc3nc(-c4ccc(C)cc4)cc(C(F)(F)F)n3n2)cc1`, inactive: 121%.
Take `CCn1c(=O)c2cc(C(=O)NCCc3cc(OC)ccc3OC)sc2c2ccccc21`: the survival was inactive: 61%.
In the case of `CCCCN(CC)CCNC(=O)c1cc2c(=O)oc3ccc(C)cc3c2s1` it was inactive: 84%; in that of `Cc1cccc(Cn2cc(C(=O)Nc3ccc(F)c(C(F)(F)F)c3)ccc2=O)c1`, inactive: 128%.
On to `O=C(NCc1cccc(F)c1)c1ccc(-n2cnc3cccnc32)cc1`, for which the survival was inactive: 113%.
In the case of `Cc1ccc(-n2c(C)nc3c(cnn3-c3ccccc3C)c2=O)cc1F` it was inactive: 115%; in that of `CCc1ccc2oc(-c3ccc(NC(=O)c4ccc(OC)c(Br)c4)cc3)nc2c1`, inactive: 75%; in that of `Cc1ccc(-c2cc(C(F)(F)F)n3nc(C(=O)Nc4ccc(Cl)c(C(F)(F)F)c4)cc3n2)cc1`, inactive: 72%.
Turning to `Cn1cc(S(=O)(=O)c2ccccc2)c(=O)c2cc(F)c(N3CCN(c4ccccc4)CC3)cc21`, the survival was inactive: 135%.
In the case of `Cc1cccc(-n2c(-c3ccccc3)cn3c4c(=O)[nH]c(=O)n(C)c4nc23)c1` it was inactive: 160%; in that of `CCOC(=O)C1CCN(C(c2cc3ccc(OC)cc3n3nnnc23)c2nnnn2C2CCCC2)CC1` (stereo not given), inactive: 105%.
With `Cc1cc(C)c(Cn2c3ccccc3c3cnn(CC(=O)N4CCCCCC4)c(=O)c32)c(C)c1` the figure was active: 1%; with `Cc1cccc(C)c1OCC(=O)Nc1nc(-c2ccc(Br)cc2)ns1`, inactive: 78%.
For `O=C(Cn1c(=O)n(-c2cccc(Cl)c2)c(=O)c2sc3ccccc3c21)N1CCCC1`, the survival was inactive: 71%.
For the compound `CCOc1ccc(C(=O)Nc2c(C(=O)Nc3ccccc3F)oc3ccccc23)cc1OCC`, the survival is inactive: 70%.
In the case of `Cc1cc(C)cc(-n2c(C)cc(/C=N/NC(=O)CSc3ncccn3)c2C)c1` it was inactive: 124%; in that of `CCc1ccc2nc(N3CCCC3)c(C#N)cc2c1`, inactive: 108%.
In the case of `CCOC(=O)CN1C(=O)C(O)(CC(=O)c2cc(OC)ccc2OC)c2ccccc21` (stereo not given) it was inactive: 137%.
In the case of `COC(=O)c1cc(C)nc2c1c(=O)nc(SCc1ccccc1F)n2C1CC1` it was inactive: 77%; in that of `CC(=O)c1ccc(NC(=O)c2c3c(nc4ccccc24)C(=O)N(C2CCCCC2)C3)cc1`, inactive: 82%; in that of `O=S1(=O)c2ccccc2N(Cc2ccccc2)c2ccccc21`, inactive: 69%.
On to `CCN(CC)CCCNC(=O)C1CCN(S(=O)(=O)CC)CC1`, for which the survival is inactive: 124%.
With `CC(=O)c1cc2c(cc1NC(=O)c1c(C)nn(-c3ccc(C)cc3)c1-n1cccc1)OCO2` the figure was inactive: 82%; with `CC1CCN(Cc2c(O)ccc3c(=O)c(-c4cccc(Cl)c4)c(C(F)(F)F)oc23)CC1`, inactive: 65%; with `COc1cccc(N2CCN(C(=O)c3cnn(C(C)(C)C)c3C3CCN(C(=O)OC(C)(C)C)CC3)CC2)c1`, inactive: 81%.
In the case of `O=C(c1ccc2c(c1)CCN2S(=O)(=O)c1ccccc1)N1CCN(c2ccc(F)cc2)CC1`, the survival was inactive: 77%.
With `O=C(Nc1cccc(Br)c1)N1CCC(CN2CCCCC2)CC1` the figure was inactive: 75%; with `Cc1ccc(NC(=O)CSc2nc3ncccc3[nH]2)cc1F`, inactive: 128%; with `COc1ccc(OCCn2cc(C(=O)C3CCCCC3)c3ccccc32)cc1`, inactive: 31%.
In the case of `O=C(NCc1ccc(Cl)cc1)C(=O)Nc1ccc(Br)cc1` it was inactive: 81%; in that of `Nc1cc(N)nc(SCC(=O)NCc2ccccc2)n1`, inactive: 97%.
In the case of `CCc1cccc(NC(=O)Cn2c(=O)n(Cc3ccccc3)c(=O)c3c2c2cc(OC)ccc2n3C)c1` it was inactive: 82%.
For the compound `COc1ccc(C2=NN(C(=O)CCC(=O)O)C(c3ccccc3F)C2)cc1OC` (stereo not given), the survival was inactive: 99%.
In the case of `COC(=O)c1c(NC(=O)CCCOc2ccc(C(C)(C)C)cc2)sc2c1CCC(C)C2` (stereo not given) it was inactive: 30%; in that of `COCc1[nH]nc2c1C1(CCC(C(C)(C)C)CC1)C(C#N)=C(N)O2` (stereo not given), inactive: 113%.
For the compound `O=C(NCCc1csc(-c2ccc(Cl)cc2)n1)c1cccs1`, the survival is inactive: 68%.
With `CCc1ccccc1NC(=O)Cn1c(-c2nonc2N)nc2ccccc21` the figure was inactive: 90%; with `CCN(C(=O)Cn1nc(Cc2cccnc2)c2ccccc2c1=O)c1ccccc1F`, inactive: 76%.
As for `O=S(=O)(Nc1ccc2oc3c(c2c1)CCCC3)c1cc(Cl)ccc1Cl`, the survival was inactive: 46%.
In the case of `COC(=O)c1ccc(-n2nc(C)cc2C)cc1` it was inactive: 106%; in that of `CC1CCN(C(=O)CSc2nnc(-c3ccccc3Cl)o2)CC1`, inactive: 110%.
With `COc1ccc(NC(=O)/C(C#N)=C/c2ccc(OCc3cc(=O)n4nc(C)sc4n3)cc2)cc1` the figure was inactive: 86%; with `Cc1cccc(NC(=O)C2CCN(c3nnc(-n4c(C)ccc4C)s3)CC2)c1C`, inactive: 132%.
With `COc1ccc(-c2nnc(C3CCN(C(=O)c4ccccc4F)CC3)o2)cc1`, the survival is inactive: 85%.
With `Cc1ccc(S(=O)(=O)NCCc2cn3c(C)csc3n2)cc1` the figure was inactive: 63%; with `COc1ccc(C(=O)CSc2nc(C)cc(C)n2)cc1C`, inactive: 114%.
In the case of `COc1ccc(-c2onc(C)c2C)cc1S(=O)(=O)N1c2ccccc2CC1C` (stereo not given) it was inactive: 59%.
In the case of `COc1ccc(C(=O)n2cnnc2N)cc1` it was inactive: 106%; in that of `COc1ccc(C2Sc3ccccc3NC3=C2C(=O)c2ccccc23)c(OC)c1OC` (stereo not given), inactive: 90%.
Consider `Cc1ccc2nc(-c3cc(NC(=O)c4ccc5c(c4)OCCO5)ccc3Cl)oc2c1`, for which the survival is inactive: 68%.
In the case of `Cc1ccc(N2CC(c3nc4ccccc4n3CCC3CCCCC3)CC2=O)cc1` (stereo not given) it was inactive: 80%; in that of `CCOc1ccc(C(CC(=O)O)N2Cc3ccccc3C2=O)cc1OC` (stereo not given), inactive: 77%; in that of `COc1ccc(C2c3c(oc4ccc(F)cc4c3=O)C(=O)N2Cc2ccc3c(c2)OCO3)cc1` (stereo not given), inactive: 77%.
With `Cc1cccc(N(C)C(=O)c2cc(S(=O)(=O)N3CCCC3)cn2C)c1` the figure was inactive: 83%; with `COC(=O)c1ccccc1NC(=O)NCCc1c(C)nn(C)c1C`, inactive: 82%.
In the case of `CCc1ccc(CNCc2c(C(=O)O)n(Cc3cccc(F)c3)c3cc(OC)ccc23)cc1` it was inactive: 63%.
In the case of `N#C/C(=C\c1ccccc1)c1nc(-c2cc3cc(Br)ccc3oc2=O)cs1`, the survival is inactive: 75%.
As to `Cc1cccc(NC(=O)c2c(NC(=O)C(F)(F)F)sc3c2CCCCC3)c1`, the survival was active: -3%.
